Publication PMC4336329 (PLoS ONE, 2015)
The campaign covered roughly 310,000 compounds. About 14,000 (4.5%) showed an effect of 50% or more. Effects have a minus sign here. Some of the results follow.

biological target: human ether-à-go-go-related gene (hERG) potassium channel (human, UniProt Q12809); assay: primary screen, population patch clamp on CHO cells stably expressing hERG
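Also: peak tail current of the secondary pulse compared with the same well before compound.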

Chain of human ether-à-go-go-related gene (hERG) potassium channel (Q12809 whole entry, looked up): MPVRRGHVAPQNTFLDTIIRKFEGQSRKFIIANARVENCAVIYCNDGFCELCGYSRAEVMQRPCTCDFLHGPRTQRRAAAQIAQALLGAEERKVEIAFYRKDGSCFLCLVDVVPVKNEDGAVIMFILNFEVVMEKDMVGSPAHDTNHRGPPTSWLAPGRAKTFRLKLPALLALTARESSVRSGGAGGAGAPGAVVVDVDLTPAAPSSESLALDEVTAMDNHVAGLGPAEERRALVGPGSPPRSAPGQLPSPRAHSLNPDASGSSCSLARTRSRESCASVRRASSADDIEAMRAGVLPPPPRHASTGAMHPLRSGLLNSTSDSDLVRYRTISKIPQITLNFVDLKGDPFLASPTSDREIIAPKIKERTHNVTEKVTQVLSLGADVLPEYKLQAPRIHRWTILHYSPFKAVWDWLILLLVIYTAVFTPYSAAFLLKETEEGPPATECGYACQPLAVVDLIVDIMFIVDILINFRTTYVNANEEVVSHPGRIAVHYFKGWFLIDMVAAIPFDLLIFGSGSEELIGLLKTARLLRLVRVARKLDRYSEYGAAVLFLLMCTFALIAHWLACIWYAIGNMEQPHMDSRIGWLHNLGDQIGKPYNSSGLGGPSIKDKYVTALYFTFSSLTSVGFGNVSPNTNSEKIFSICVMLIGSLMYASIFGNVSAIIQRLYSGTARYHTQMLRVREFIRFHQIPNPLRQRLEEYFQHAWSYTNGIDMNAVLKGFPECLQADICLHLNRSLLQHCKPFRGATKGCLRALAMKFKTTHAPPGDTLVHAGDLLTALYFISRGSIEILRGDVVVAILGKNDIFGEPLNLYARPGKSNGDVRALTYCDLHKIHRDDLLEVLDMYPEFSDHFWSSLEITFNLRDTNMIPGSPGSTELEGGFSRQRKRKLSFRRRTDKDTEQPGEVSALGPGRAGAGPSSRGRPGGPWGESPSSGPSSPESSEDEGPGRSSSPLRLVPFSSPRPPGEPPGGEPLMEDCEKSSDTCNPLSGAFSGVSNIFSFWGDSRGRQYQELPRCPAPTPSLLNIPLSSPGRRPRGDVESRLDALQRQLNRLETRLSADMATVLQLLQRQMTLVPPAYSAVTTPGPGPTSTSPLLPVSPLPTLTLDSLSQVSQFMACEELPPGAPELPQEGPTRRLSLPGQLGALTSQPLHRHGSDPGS

Compound | hERG current change (%, negative = inhibition) at 10uM [%]
Cc1ccc(S(=O)(=O)N(Cc2ccccc2)c2ccccc2C(=O)NCc2ccco2)cc1 | 1.72
Cc1ccc(C(=O)N2CCN(c3ccc(NC(=O)COc4ccccc4C)cc3)CC2)cc1 | -73.6
CC1(C(=O)OCC(=O)Nc2ccccc2)CC1(Cl)Cl (stereo not shown) | 7.96
O=C(c1cc(-c2ccc(Cl)cc2)on1)N1CCc2ccccc2C1 | 9.65
O=C(CCCOc1ccccc1)Nc1ccc(S(=O)(=O)N2CCOCC2)cc1 | -13.9
CC(=O)Nc1ccc(-c2cn3cccnc3n2)cc1 | 2.7
CCN(CC)CCN1C(=O)/C(=C\c2ccc(Cl)c([N+](=O)[O-])c2)SC1=Nc1ccc(OC)cc1 | 5.33
COc1cccc(-c2sc3ccc(OC)cc3c2-c2ccc(OC)cc2F)c1 | 7.17
CC(Cc1ccccc1)NC(=O)c1ccc(N)cc1 (stereo not shown) | 0.557
COc1ccc2c(c1)[nH]c1c(=O)n(CCC3=CCCCC3)cnc12 | 5.06
Cc1c(OCC(=O)NCc2ccccn2)ccc2c3c(c(=O)oc12)CCCC3 | 12.1
O=C(O)CCC(=O)N1CCN(c2nc3ccccc3s2)CC1 | -4.33
CC(=O)c1c(C)[nH]c(C(=O)CSc2nnc(-c3ccccc3)n2Cc2ccc3c(c2)OCO3)c1C | -1.37
COc1ccc(Cn2c(=S)[nH]c3ccccc32)cc1 | 32.9
CCOC(=O)CNC(=O)c1sc(NC(=O)c2ccccc2)nc1C | 1.47
CCC(CC)C(=O)Nc1ccc(Nc2ccccc2)cc1 | 8.32
CC1CN(C(=O)c2ccc(-c3ccccc3Cl)o2)CC(C)O1 (stereo not shown) | -14.2
Cc1ccc([N+](=O)[O-])cc1S(=O)(=O)Nc1ccc(C(=O)N(C)C)cc1 | 10.3
O=C(CSc1nnc(CNC(=O)c2ccccc2F)o1)c1ccc(Cl)cc1 | -9.97
COC(=O)c1cccc(NC(=S)NCc2ccc(Cl)cc2)c1 | 4.04
COC(=O)c1ccc(NC(=S)NC2CC3CCC2C3)cc1 (stereo not shown) | 9
CSc1ccccc1NS(=O)(=O)c1ccc2c(c1)OCCO2 | -4.66

Compound | hERG current change (%, negative = inhibition) at 10uM [%]
COc1ccc(OC)c2[nH]c(=O)c(CCNC(=O)c3cc4ccccc4o3)cc12 | -49.9
CCCNc1nc(C)cc(-c2cc(C(=O)Nc3ccccc3)on2)n1 | 8.74
CCc1cc(C(=O)N(C)CC(=O)N(CC(C)C)c2c(N)n(CC(C)C)c(=O)[nH]c2=O)sc1C | 0.234
Cc1ccc(OCCN(C)C(=O)c2cc(COc3ccc(F)cc3F)on2)cc1 | 7.33
Cc1ccc(-c2nnc(SCC(=O)N(C)C)nc2-c2ccc(C)cc2)cc1 | -67.9
N#Cc1ccccc1S(=O)(=O)N1CCN(C(=O)c2ccc(-n3cncn3)c([N+](=O)[O-])c2)CC1 | -23.3
COc1ccc(CCNC(=O)CSc2nn(-c3ccccc3)c(=S)s2)cc1 | 16.4
COc1cc(O)c(C(=O)/C=C/c2ccccc2)c(OC)c1 | 14.8
NS(=O)(=O)c1ccc(N=NN2CCCCC2)cc1 | 3.11
Cc1ccc(N(CC(=O)NCc2ccc(F)cc2)C(=O)c2snc(C(N)=O)c2N)cc1C | -1.8
Cc1cc(=O)oc2cc(OCC3CC(c4ccc(Br)cc4)=NO3)ccc12 (stereo not shown) | 11.5
Cc1ccc2c(Cl)c(C(=O)NCCc3ccccc3)sc2c1 | 3.66
CC(C)C(NS(=O)(=O)c1cccc(C(F)(F)F)c1)C(=O)N1CCc2ccccc2C1 (stereo not shown) | 2.81
COc1ccc(C(=O)N/N=C\c2ccc(OC)c(COc3ccccc3Br)c2)c(OC)c1 | 9.88
Cc1ccc(C(=O)N2CCCCC2)cc1S(=O)(=O)N1CCCCCC1 | -38.4
N#C/C(=C\c1ccco1)c1nc2ccccc2s1 | 4.36
C(=C\c1ccccc1)/C=N/Nc1nc(N2CCOCC2)nc(N2CCOCC2)n1 | -9.68
COc1ccc(C2c3cc(OC)c(OC)cc3CCN2C(=O)c2ccccc2Br)cc1OC (stereo not shown) | -3.04
COc1ccc(CCN(C)C/C=C/c2ccccc2)cc1OC | -64.6
Cc1ccc(OCC(=O)Oc2ccc(C)c(C)c2)cc1 | 11.8
C[C@@H]1CN(C(=O)c2nc3ccc(Cl)cn3c2CNCC[C@@H]2C[C@@H]3C=C[C@H]2C3)C[C@H](C)O1 | -20.5
Nc1cc(=O)[nH]c(=S)n1-c1ccccc1 | 6.02

Compound | hERG current change (%, negative = inhibition) at 10uM [%]
CC1CCc2c(C(=O)N3CCN(S(=O)(=O)c4cccs4)CC3)csc2C1 (stereo not shown) | -25
CCCCNC(=O)C1CC(c2cccc([N+](=O)[O-])c2)=NO1 (stereo not shown) | -13.8
COc1ccc(N2C(=O)CCC(C(C)=O)=C2C)cc1 | 6.76
COc1ccc(CNC(=S)Nc2ccccc2F)cc1 | 5.44
COc1ccc(/C=C/C(=O)Nc2ccc(-n3nncc3-c3ccccc3)cc2)cc1OC | -1.27
CC(C)(C)n1nc2c(c1NC(=O)c1ccc(C(F)(F)F)cc1)CS(=O)(=O)C2 | -38.9
O=C(COC(=O)c1cccc(NS(=O)(=O)c2ccc(F)c(F)c2)c1)NC(=O)NC1CCCCC1 | -8.66
COc1ccc(C(=O)/C=C/Nc2ccc(S(=O)(=O)Nc3cccc(C(C)=O)c3)cc2)cc1 | -0.287
COC(=O)CCSc1nccn1Cc1ccccc1 | 3.91
CCC(Oc1ccccc1)C(=O)N1CCN(c2ccccn2)CC1 (stereo not shown) | -5.16
Cc1ccc(C(=O)OCc2nc3ccccc3s2)o1 | -17.7
O=C(N/N=C/c1cn(-c2ccccc2)nc1-c1cc2ccccc2o1)c1ccncc1 | 0.389
CCOC(=S)SCC(=O)Nc1nc(-c2ccccc2)cs1 | 31.9
O=C(CCc1ccccc1)c1ccc2c(c1)OCCCO2 | -23
COc1ccc(N2CCN(C(=O)[C@@H]3CCCN3C3=NS(=O)(=O)c4ccccc43)CC2)cc1 | -0.599
CN1CCC(=NNC(=O)C(=O)NC2CCCCC2)CC1 | 7.62
COc1ccc(-c2cc(-c3cccnc3)c(C#N)c(N)n2)cc1 | -2.6
CCc1ccccc1OCC(=O)Nc1ccc(S(N)(=O)=O)cc1 | 29.1
Cc1ccsc1C(=O)OCC(=O)Nc1ccc(Cl)cc1C(F)(F)F | 9.99
CCCCN(CC)S(=O)(=O)c1ccc(C(=O)Nc2nnc(CSC)o2)cc1 | -8.53
Cc1ccc(-c2csc(NC(=O)/C=C/c3cccs3)n2)cc1C | 9.21
S=C(NCc1ccco1)Nc1ccc(Cl)cc1Cl | 8.1

Compound | hERG current change (%, negative = inhibition) at 10uM [%]
CCN(CC(=O)NC(C)C)C(=O)CCNC(=O)c1ccc(Cl)cc1 | -0.92
COc1ccc(Oc2cn[nH]c2-c2ccc(OC)cc2O)cc1 | -2.64
CCN1CCN(CCOc2ccc(Br)cc2C)CC1.O=C(O)C(=O)O | -46.6
O=C(NCc1ccc2c(c1)OCO2)C(=O)NC1CCCCC1 | -13.2
CN(c1ncc(C(F)(F)F)cc1Cl)N1C(=O)c2cccc(N)c2C1=O | 3.2
Cc1cc(C)c(OCC(=O)OC(C)C(=O)N2CCc3ccccc32)c(C)c1 (stereo not shown) | -10.8
COCCN(C(=O)CSc1nnc(Nc2ccccc2F)s1)c1c(N)n(Cc2ccccc2)c(=O)[nH]c1=O | 4.69
COC(=O)C(C)NC(=O)C(C)NC(=O)OCc1ccccc1 (stereo not shown) | 14.4
CCCCC(O)(c1ccc(F)cc1)C(CN1CCOCC1)c1ccc(Cl)cc1.Cl (stereo not shown) | -12
COc1ccc(CCNC(=O)CSc2n[nH]c(C)c2[N+](=O)[O-])cc1OC | -1.14
CCC(C)c1ccc(NC(=S)Nc2ccc(OC)cc2)cc1 (stereo not shown) | -17.2
O=C(NCc1ccc(F)cc1)c1cnccn1 | 15.8
COc1ccccc1CCNC(=O)C(=O)NCC1OCCN1C(=O)c1ccc(Cl)cc1 (stereo not shown) | -0.975
Cc1cccc(OCC(=O)Nc2ccc(C(=O)NCc3cccnc3)cc2)c1 | -0.608
Cc1cc(C)n(-c2ncnc3ccccc23)n1 | 18.9
Cc1ccccc1CSCC(=O)Nc1ccccc1Br | 6.98
CCCNC(=O)CCCN1C(=O)c2ccccc2Sc2ncccc21 | 27.7
COc1ccc(N(C(=O)c2snc(C(N)=O)c2N)C(C(=O)NC2CCCC2)c2ccc(C)o2)c(OC)c1 (stereo not shown) | -37.8
CC(C)C(NS(=O)(=O)c1ccccc1)C(=O)N1CCCCCC1 (stereo not shown) | -0.46
COCC(=O)N1CCC(Oc2cccc(C(=O)NCc3ccccn3)c2)CC1 | 16.7
COc1cc2c(cc1OC)C(NNC(=O)c1ccc(Br)o1)=NC(C)(C)C2 | 8.61
CC(C)C[C@@H](CO)N1CCN(Cc2ccccc2)CCC1=O | 6.02
